This is an account of results in the supplement of paper PMC11417369.

± gives the standard deviation of the averaged measurements. The list shows a part of the results.

The test system of this assay is PfAP2-G AP2 domain (GST-tagged). The assay can be described thus: gcPBM binding intensity (ln(normalized median fluorescence intensity)); higher = stronger DNA binding. A digest of the protocol:
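In this array assay, P. falciparum DNA-binding domains with a GST tag, expressed in E. coli, were applied for 1 h to primer-extended double-stranded 36-bp intergenic genomic probes and negative controls on an Agilent 4 × 180k array. Bound protein was visualised with Alexa488 anti-GST antibody at 488 nm. Binding intensity is the highest Masliner-normalised natural-log median intensity across replicate spots of either probe orientation.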
For “GTACAGATGTAGTATGCATGTAATTATATATAAATT [TGCATGCA_site292]”, the “gcPBM binding intensity (ln)” value turned out to be 11.1 ± 0.47.
Next, “ATATAAAAAAGAGGGAGTACTTGTAACAAAATAATA [XGTACX_site8679]”: 11.5 ± 0.65.
For the sequence “GCGTAGTTCGGAAGGGTGCTTTTTTGTTAATAAAAA [GTGCAC_site9592]”, the “gcPBM binding intensity (ln)” value stood at 10.2 ± 0.33.
On to “AAAAAGCAGGATTATACACACAAATATTTATATGTT [CACACA_site6634]”, for which the “gcPBM binding intensity (ln)” value is 9.82 ± 0.11.
Regarding “TTCTCTATAAATGCTGCACACACATTTAATTATTTA [CACACA_site8828]”, the “gcPBM binding intensity (ln)” value stood at 10.1 ± 0.13.
Take “ATTTCTTTTTTTTCTTGTACACATATTAAATTTATG [XGTACX_site734]”: the “gcPBM binding intensity (ln)” value amounted to 11.3 ± 0.81.
Regarding “TTATGTTATAAATACACACACAAAAGAAAAAAAAAA [CACACA_site7414]”, the “gcPBM binding intensity (ln)” value worked out at 10.2 ± 0.3.
“TCCCATAATATTAGTAGTACTATTAATATTTTCAGG [XGTACX_site4925]”: the “gcPBM binding intensity (ln)” value was 11.3 ± 0.8.
On to “AATATTTATTTTTTTGCACACATATTTTACATTTTA [CACACA_site3182]”, for which the “gcPBM binding intensity (ln)” value was 10 ± 0.21.
In the case of “GTAAAATTTCGGATTTGTACACATGGCTATGAAAAA [XGTACX_site939]”, the “gcPBM binding intensity (ln)” value worked out at 11.2 ± 0.68.
To “TCTAAACAAATTAATAAAATAAGTATTCAAAATTAT [CACACA_negctrl_site731]” belongs 10.1 ± 0.18.
For the sequence “GGAGAAAAAAAAAAAAAACACACGGTACATTCAAAG [CACACA_site1503]”, the “gcPBM binding intensity (ln)” value came out at 10.36 ± 0.035.
Turning to “TTTTTTTCGTATATTACACACTATATATAGAAATTA [CACACA_site298]”, the “gcPBM binding intensity (ln)” value was determined as 10.1 ± 0.42.
To “ATAATATTTTATGGTTGTACTTTTAGTTCTTTTTTT [XGTACX_site5756]” belongs 11.2 ± 0.77.
Regarding “ATTAAATATATTTTGCGTACACAAAAAAATACGTTC [XGTACX_site3862]”, the “gcPBM binding intensity (ln)” value was determined as 11.6 ± 0.97.
Consider “TACGTGAAGTTATATACACACATAAATATGTCTGTA [CACACA_site7463]”, for which the “gcPBM binding intensity (ln)” value was determined as 9.96 ± 0.15.
Regarding “TTAAAGTATAACTGTACATGCGAGTAAAAGAATGAC [TGCATGCA_site899]”, the “gcPBM binding intensity (ln)” value turned out to be 11.2 ± 0.67.
Consider “GAAAAAAAACACATTGTGCACTTTTCCTTAAGTATA [GTGCAC_site9475]”, for which the “gcPBM binding intensity (ln)” value is 10.4 ± 0.12.
For the sequence “TTATTAAAGGAAAAATGTACATATAAATGAATATGT [XGTACX_site23]”, the “gcPBM binding intensity (ln)” value came out at 11.1 ± 0.63.
With “AAAAAATGTAAATATAAACAACCAAAGGGGGTATAC [GTGCAC_negctrl_site465]”, the “gcPBM binding intensity (ln)” value worked out at 10.5 ± 0.28.
In the case of “AAAAAAAAAAAGCACACACACATATGCGTATATATA [CACACA_site954]”, the “gcPBM binding intensity (ln)” value worked out at 10.34 ± 0.092.
Turning to “AAAATAATAATAAAAAGTACATGTGTATATAATAAA [XGTACX_site754]”, the “gcPBM binding intensity (ln)” value was 11.3 ± 0.82.
Next, “TGCATTATTTTATGAAGTACATATGAACAAAAAATT [XGTACX_site2185]”: 11.5 ± 1; “ATATATTCATTTTTATGTACGTAAATTGTAAATTGG [XGTACX_site8242]”: 11.6 ± 0.92; “ACCATTTGTAGGTAAACACACATTATTCTTAATATC [CACACA_site5453]”: 9.96 ± 0.13.
As for “TTTCTCTTATTCCAATCTATAATAAGTATCAATATT [CACACA_negctrl_site179]”, the “gcPBM binding intensity (ln)” value was determined as 10.2 ± 0.26.
For “AAAGAAGGTAAACACACACACACACCGACAAAAAAA [CACACA_site9255]”, the “gcPBM binding intensity (ln)” value was determined as 10.1 ± 0.2.
In the case of “AAATTATCCAAAAATTGTACTTAAAACAACATAAAA [XGTACX_site6238]”, the “gcPBM binding intensity (ln)” value worked out at 11.1 ± 0.76.
As for “AATATATATATGATTATATATATATATATATATATA [GTGCAC_negctrl_site290]”, the “gcPBM binding intensity (ln)” value worked out at 9.69 ± 0.3.
To “AAAATAACACAAATGGGTACATATTATATTAAATAA [XGTACX_site7027]” belongs 11.3 ± 0.93.
With “TTTAATTAAAATATATGTACATATATATATATATAT [XGTACX_site4517]”, the “gcPBM binding intensity (ln)” value amounted to 11.4 ± 0.77.
With “TATGTTTTTCGGTATGCATGCATATGCTTAATAATA [TGCATGCA_site184]”, the “gcPBM binding intensity (ln)” value amounted to 10.2 ± 0.26.
As to “AATATTAAACAAATGAAAAAAAAATATATATTATAT [CACACA_negctrl_site742]”, the “gcPBM binding intensity (ln)” value came out at 9.79 ± 0.16.
“AACCAAATTTCACCATGTACATATTGATAAATATAT [XGTACX_site1374]”: the “gcPBM binding intensity (ln)” value was 11.2 ± 0.86.
As to “ATATGATTTGGATGTAGTACATATTTTTTTATGTTT [XGTACX_site1929]”, the “gcPBM binding intensity (ln)” value is 11.5 ± 0.8.
For the sequence “AAATGAACAAGTGGCACACACACATTCTAACTAATT [CACACA_site3203]”, the “gcPBM binding intensity (ln)” value was found to be 10.31 ± 0.064.
On to “GCACCAAAAAAAAGACGTACAGTTATATTAAAATAG [XGTACX_site8926]”, for which the “gcPBM binding intensity (ln)” value worked out at 11.7 ± 1.
On to “AATGAAAAGAAATAATAAATAAATGATGACCAGCTG [GTGCAC_negctrl_site398]”, for which the “gcPBM binding intensity (ln)” value stood at 10.6 ± 0.38.
In the case of “TGATTATCCTTCAGGAGTACATATAATATAATATAT [XGTACX_site1479]”, the “gcPBM binding intensity (ln)” value amounted to 11.4 ± 1.
Regarding “TTATAAAGAAAAAATTGCTTTAAAAGAAAGATTACA [CACACA_negctrl_site960]”, the “gcPBM binding intensity (ln)” value came to 9.66 ± 0.11.
For the sequence “ATATATATATGAATCACACACAAAAAATATAGAGAT [CACACA_site3913]”, the “gcPBM binding intensity (ln)” value stood at 10.2 ± 0.16.
For the sequence “TATTATATGAATAATTGTACGAAATTTAAAAGACAA [XGTACX_site7558]”, the “gcPBM binding intensity (ln)” value was 10.8 ± 0.51.
With “GGGGAGCTATCTCCTGCACACACAATTTTTTTTTTT [CACACA_site8703]”, the “gcPBM binding intensity (ln)” value was 10.3 ± 0.25.
As for “CACAAATATATACATACACACATATATACGCATATA [CACACA_site395]”, the “gcPBM binding intensity (ln)” value stood at 10.2 ± 0.12.
Take “TAATGTATTATTTAATGTACTTAAAAAATAAATAAA [XGTACX_site3296]”: the “gcPBM binding intensity (ln)” value stood at 11.3 ± 0.96.
To “AATGAACAGACGAGCACACACACACCCATATATATA [CACACA_site1018]” belongs 10.3 ± 0.16; to “ACCTTTAATAAATACACACACATAAAAAAAATATAT [CACACA_site5086]”, 10.3 ± 0.29; to “TAAAAATTAAAGTGTACACATATATATATATATATA [CACACA_site4781]”, 11.6 ± 0.97.
Consider “ATTACCATATTTTGTACACACATCTTTATCTCAATA [CACACA_site3217]”, for which the “gcPBM binding intensity (ln)” value was determined as 11.3 ± 0.71.
To “AAACCTATGTATATTATACACACTCCAAACTATTAT [CACACA_site8536]” belongs 10 ± 0.099.
Next, “TTTTATGTTTATGTGGTGCATGTTTTGAAGAAAATA [GTGCAC_site9616]”: 10.5 ± 0.38.
On to “TATAAACCGACGAAAACACACATATGTAAATATATA [CACACA_site491]”, for which the “gcPBM binding intensity (ln)” value is 10.01 ± 0.078.
As to “ACCAATAATATACATACACACATAAATGTTTATATA [CACACA_site4328]”, the “gcPBM binding intensity (ln)” value was determined as 9.975 ± 0.078.
Take “ACATGAATATATACACGTACATATATACATATATAT [XGTACX_site5872]”: the “gcPBM binding intensity (ln)” value worked out at 11.3 ± 0.81.
As for TGAAAAACTATCAGAGTGCATATATAGCTCGATACA, the “gcPBM binding intensity (ln)” value came out at 9.815 ± 0.021.
Next, “CGGGGGTAGTTTTATGCACACGTTTATTAATGCTTC [CACACA_site5717]”: 10.6 ± 0.35.
In the case of “ATATAAAAAAAATTTAGTACATATATATATATATAT [XGTACX_site8635]”, the “gcPBM binding intensity (ln)” value amounted to 10.9 ± 0.73.
